Test results as given in ChEMBL document CHEMBL4888484, “Replenishing the malaria drug discovery pipeline: Screening and hit evaluation of the MMV Hit Generation Library 1 (HGL1) against asexual blood stage Plasmodium falciparum ,using a nano luciferase reporter read-out” (2022).
About 540 (0.36%) of roughly 150,000 compounds showed an effect of 50% or more. This is one part of the list.

The compounds below were run on Plasmodium falciparum (assay: Primary screen in NF54 nanoGlo assay, in single point, at 2uM, 72h; a lower Z score goes with more inhibition). Settings: timepoint 72 hour.
Format: functional, Erythrocyte

Compared with CC1CCCCC1NC(=O)COC(=O)c1cnn(C)c1 (stereo unspecified), O=C(NC[C@H]1CCCS1(=O)=O)Nc1ccc(COC2CCCC2)cc1 is lower in “% Inhibition” value: 2% for the first, -6% for the second.

Going from Cc1nc(NC(=O)C2(Cc3ccccc3)CC3CCC2C3)n[nH]1 (stereo unspecified) to Cc1cnc(CNC(=O)[C@]2(c3ccccc3)CC23CCCC3)cn1, the “% Inhibition” value rises from -7% to -4%.

Compared with CC(C)c1oncc1NC(=O)CCCNC(=O)OC(C)(C)C, CCS(=O)(=O)CC(=O)Nc1cc(C)ccc1C is lower in “% Inhibition” value: -9% for the first, -18% for the second.

First: O=C1C2CCCCC2C(=O)N1CC(O)c1ccc(Cl)cc1 (stereo unspecified)
Second: CC[C@H](O)Cn1nc(COC)nc1C1(c2ccc(Cl)cc2)CCC1
The “% Inhibition” value of the first is lower: -9% for the first, 5% for the second.

First: COc1cc(NC(=O)N2CCCCC[C@H]2c2ccccc2Cl)cc(OC)c1OC
Second: Cc1ccc(-c2cn3c4ccccc4nc3n2CCN2CCCC2)cc1
The “% Inhibition” value of the first is higher: 5% for the first, -4% for the second.

Compared with CCOC1CC(CO)(NCc2cnc3ccsc3c2)C1(C)C (stereo unspecified), Cc1nc(CNS(=O)(=O)Cc2ccc(F)c(Cl)c2)sc1C is higher in “% Inhibition” value: -8% for the first, 34% for the second.

CC(C)c1nnc(NC(=O)CC[C@@H](C)[C@H]2CC[C@H]3[C@@H]4[C@@H](O)C[C@@H]5C[C@H](O)CC[C@]5(C)[C@H]4CC[C@]23C)s1 and CC1(C)COC[C@H](CS(=O)(=O)N(Cc2cccnc2)C2CC2)O1 are the same in “% Inhibition” value: -5% for the first, -5% for the second.

Going from Cc1ccc(NC(=O)[C@@H]2COCCN2C)c(C)c1O to O=C(N[C@@]12COC[C@@H]1C2)c1cc2c(o1)CCCC2, the “% Inhibition” value falls from -3% to -25%.

Going from COCCN1CCCN(Cc2ccc(-c3ccn[nH]3)o2)CC1=O to CC[C@H](C)N1CCN(Cc2cccc(Oc3ccccc3)c2)CC1, the “% Inhibition” value rises from -6% to 36%.

Compared with CC(C)(C)c1nc(CN2CCCC2)no1, Cc1ccc(-n2cccn2)c(CN2CCC(c3cc(O)nc(C)n3)CC2)c1 is higher in “% Inhibition” value: -16% for the first, -5% for the second.

First: COc1ccc(-c2noc(-c3nc(Cc4ccc(F)cc4)no3)n2)cc1
Second: CCOC(=O)[C@H]1CCCN(c2nc(-c3ccc4c(c3)OCO4)c3c(N)n(C)nc3n2)C1
The “% Inhibition” value of the first is lower: -16% for the first, 4% for the second.

For CS(=O)(=O)C1CN(S(=O)(=O)[C@H]2C[C@@H]2c2ccccc2)C1, the “% Inhibition” value was 4%.

Going from CC1CCCCC1NC(=O)COC(=O)c1cnn(C)c1 (stereo unspecified) to O=C(NC[C@H]1CCCS1(=O)=O)Nc1ccc(COC2CCCC2)cc1, the Z score rises from -0.38 to 1.

Going from Cc1nc(NC(=O)C2(Cc3ccccc3)CC3CCC2C3)n[nH]1 (stereo unspecified) to Cc1cnc(CNC(=O)[C@]2(c3ccccc3)CC23CCCC3)cn1, the Z score falls from 0.85 to 0.77.

Going from CC(C)c1oncc1NC(=O)CCCNC(=O)OC(C)(C)C to CCS(=O)(=O)CC(=O)Nc1cc(C)ccc1C, the Z score rises from 1.59 to 3.44.

Compared with O=C1C2CCCCC2C(=O)N1CC(O)c1ccc(Cl)cc1 (stereo unspecified), CC[C@H](O)Cn1nc(COC)nc1C1(c2ccc(Cl)cc2)CCC1 is lower in Z score: 1.38 for the first, -0.75 for the second.

First: COc1cc(NC(=O)N2CCCCC[C@H]2c2ccccc2Cl)cc(OC)c1OC
Second: Cc1ccc(-c2cn3c4ccccc4nc3n2CCN2CCCC2)cc1
The Z score of the first is lower: -0.99 for the first, 0.6 for the second.

Going from CCOC1CC(CO)(NCc2cnc3ccsc3c2)C1(C)C (stereo unspecified) to Cc1nc(CNS(=O)(=O)Cc2ccc(F)c(Cl)c2)sc1C, the Z score falls from 1.03 to -4.56.

Compared with CC(C)c1nnc(NC(=O)CC[C@@H](C)[C@H]2CC[C@H]3[C@@H]4[C@@H](O)C[C@@H]5C[C@H](O)CC[C@]5(C)[C@H]4CC[C@]23C)s1, CC1(C)COC[C@H](CS(=O)(=O)N(Cc2cccnc2)C2CC2)O1 is lower in Z score: 0.66 for the first, 0.52 for the second.

Going from Cc1ccc(NC(=O)[C@@H]2COCCN2C)c(C)c1O to O=C(N[C@@]12COC[C@@H]1C2)c1cc2c(o1)CCCC2, the Z score rises from 0.38 to 2.72.

First: COCCN1CCCN(Cc2ccc(-c3ccn[nH]3)o2)CC1=O
Second: CC[C@H](C)N1CCN(Cc2cccc(Oc3ccccc3)c2)CC1
The Z score of the first is higher: 0.83 for the first, -5.18 for the second.

Compared with CC(C)(C)c1nc(CN2CCCC2)no1, Cc1ccc(-n2cccn2)c(CN2CCC(c3cc(O)nc(C)n3)CC2)c1 is lower in Z score: 1.83 for the first, 0.85 for the second.

Going from COc1ccc(-c2noc(-c3nc(Cc4ccc(F)cc4)no3)n2)cc1 to CCOC(=O)[C@H]1CCCN(c2nc(-c3ccc4c(c3)OCO4)c3c(N)n(C)nc3n2)C1, the Z score falls from 1.47 to -0.48.

Work on CS(=O)(=O)C1CN(S(=O)(=O)[C@H]2C[C@@H]2c2ccccc2)C1 yielded a Z score of -0.34.
